This is one part of the list.
Tests used:
Test in all cases: glycan array binding signal (z-score within array); higher = stronger binding
Conditions in all cases: glycan notation: IUPAC condensed, linker removed
[1] = target: Fuc(a1-2)Gal
Summary of the method: (§1)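 Arrays were curated from the Consortium for Functional Glycomics database, 3228 in total, and kept only where the protein sequence was available. Binding is expressed as a within-array Z-score. This score was averaged across arrays of the same protein sequence at different concentrations or buffers and across linkers, and negative values can be read as non-binding.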

[2] = target: Fuc(a1-2)Gal(b1-3)GalNAc
Summary of the method: as §1

[3] = target: Fuc(a1-2)Gal(b1-3)GalNAc(a1-3)[Fuc(a1-2)]Gal(b1-4)Glc
Summary of the method: as §1

[4] = target: Fuc(a1-2)Gal(b1-3)GalNAc(a1-3)[Fuc(a1-2)]Gal(b1-4)GlcNAc
Summary of the method: as §1

[5] = target: Fuc(a1-2)Gal(b1-3)GalNAc(b1-3)Gal
Summary of the method: as §1

[6] = target: Fuc(a1-2)Gal(b1-3)GalNAc(b1-3)Gal(a1-4)Gal(b1-4)Glc
Summary of the method: as §1

[7] = target: Fuc(a1-2)Gal(b1-3)GalNAc(b1-4)[Neu5Ac(a2-3)]Gal(b1-4)Glc
Summary of the method: as §1

[8] = target: Fuc(a1-2)Gal(b1-3)GlcNAc
Summary of the method: as §1

[9] = target: Fuc(a1-2)Gal(b1-3)GlcNAc(b1-2)Man(a1-3)[Fuc(a1-2)Gal(b1-3)GlcNAc(b1-2)Man(a1-6)]Man(b1-4)GlcNAc(b1-4)GlcNAc
Summary of the method: as §1

[10] = target: Fuc(a1-2)Gal(b1-3)GlcNAc(b1-2)Man(a1-3)[Fuc(a1-2)Gal(b1-3)GlcNAc(b1-2)Man(a1-6)]Man(b1-4)GlcNAc(b1-4)[Fuc(a1-6)]GlcNAc
Summary of the method: as §1

[11] = target: Fuc(a1-2)Gal(b1-3)GlcNAc(b1-3)Gal(b1-4)Glc
Summary of the method: as §1

[12] = target: Fuc(a1-2)Gal(b1-3)GlcNAc(b1-3)GalNAc
Summary of the method: as §1

[13] = target: Fuc(a1-2)Gal(b1-3)GlcNAc(b1-3)[Fuc(a1-2)Gal(b1-3)GlcNAc(b1-6)]GalNAc
Summary of the method: as §1

[14] = target: Fuc(a1-2)Gal(b1-3)GlcNAc(b1-3)[Gal(b1-4)GlcNAc(b1-6)]Gal(b1-4)Glc
Summary of the method: as §1

[15] = target: Fuc(a1-2)Gal(b1-3)GlcNAc(b1-3)[Neu5Ac(a2-6)Gal(b1-4)GlcNAc(b1-6)]Gal(b1-4)Glc
Summary of the method: as §1

[16] = target: Fuc(a1-2)Gal(b1-3)GlcNAc6S
Summary of the method: as §1

[17] = target: Fuc(a1-2)Gal(b1-3)[Fuc(a1-4)]GlcNAc
Summary of the method: as §1

[18] = target: Fuc(a1-2)Gal(b1-3)[Fuc(a1-4)]GlcNAc(b1-2)Man(a1-3)[Fuc(a1-2)Gal(b1-3)[Fuc(a1-4)]GlcNAc(b1-2)Man(a1-3)]Man(b1-4)GlcNAc(b1-4)GlcNAc
Summary of the method: as §1

[19] = target: Fuc(a1-2)Gal(b1-3)[Fuc(a1-4)]GlcNAc(b1-2)Man(a1-3)[Fuc(a1-2)Gal(b1-3)[Fuc(a1-4)]GlcNAc(b1-2)Man(a1-6)]Man(b1-4)GlcNAc(b1-4)[Fuc(a1-6)]GlcNAc(b1-4)[Fuc(a1-6)]GlcNAc
Summary of the method: as §1

[20] = target: Fuc(a1-2)Gal(b1-3)[Fuc(a1-4)]GlcNAc(b1-3)[Fuc(a1-3)[Gal(b1-4)]GlcNAc(b1-6)]Gal(b1-4)Glc
Summary of the method: as §1

[21] = target: Fuc(a1-2)Gal(b1-3)[Fuc(a1-4)]GlcNAc(b1-3)[Gal(b1-4)GlcNAc(b1-6)]Gal(b1-4)Glc
Summary of the method: as §1

[22] = target: Fuc(a1-2)Gal(b1-4)Fuc(a1-3)]GlcNAc(b1-2)Man(a1-3)[Fuc(a1-2)Gal(b1-4)[Fuc(a1-3)]GlcNAc(b1-2)Man(a1-6)]Man(b1-4)GlcNAc(b1-4)GlcNAc
Summary of the method: as §1

[23] = target: Fuc(a1-2)Gal(b1-4)Glc
Summary of the method: as §1

[24] = target: Fuc(a1-2)Gal(b1-4)Glc6S
Summary of the method: as §1

[25] = target: Fuc(a1-2)Gal(b1-4)GlcNAc
Summary of the method: as §1

[26] = target: Fuc(a1-2)Gal(b1-4)GlcNAc(b1-2)Man
Summary of the method: as §1

[27] = target: Fuc(a1-2)Gal(b1-4)GlcNAc(b1-2)Man(a1-3)[Fuc(a1-2)Gal(b1-4)GlcNAc(b1-2)Man(a1-6)]Man(b1-4)GlcNAc(b1-4)GlcNAc
Summary of the method: as §1

[28] = target: Fuc(a1-2)Gal(b1-4)GlcNAc(b1-2)Man(a1-3)[Fuc(a1-2)Gal(b1-4)GlcNAc(b1-2)Man(a1-6)]Man(b1-4)GlcNAc(b1-4)[Fuc(a1-6)]GlcNAc
Summary of the method: as §1

[29] = target: Fuc(a1-2)Gal(b1-4)GlcNAc(b1-2)[Fuc(a1-2)Gal(b1-4)GlcNAc(b1-4)]Man(a1-3)[Fuc(a1-2)Gal(b1-4)GlcNAc(b1-2)Man(a1-6)]Man(b1-4)GlcNAc(b1-4)GlcNAc
Summary of the method: as §1

[30] = target: Fuc(a1-2)Gal(b1-4)GlcNAc(b1-3)Gal(b1-4)GlcNAc
Summary of the method: as §1

B1: SP16664B-bot-474-25-474 (Bacteroides ovatus) (protein)
chain: CEEDIEIGNKIDESSYLASTQLSGLLLDENTNKNSSVIELRNNEYSTNVVFRLSKLPQKGVDVQIAVEESYAAIYNTIHETDFEVFPAANVKIANNGTFVLAPDDKVTPSVKVTLTAFDGMEEDKTYIVPLTVTSSTEGVTFTETSKHMVLLVQDYRNKPNTNKGEDAVQTVLYFEVNDTNPLNALEFLTESGKYFFDHIVLFAANINWDPEKQRVYLANNENVQFLLDNNDKYLQPLRKAGMKIIISILGNHDEAGVAQLSDMGAREFARELAAYCRAYNLDGVAFDDEYSNSPDLSNPWLASPSAYAGSRLMYECKAVMPEKIVSLYNLGNMYSSSLQVIDGIEPGQYCDYAVADYGGAAGPGTGMTLKQCAGMSIELRRGSGNSSESTARSRKEAGYGYYMFFALDPSLYGSQVYRCQSVCKGLYDETLVYPSYYYKKNSTEREAIN
glycan array binding signal (z-score) [1]: 0.062
glycan array binding signal (z-score) [2]: -0.171
glycan array binding signal (z-score) [3]: -0.353
glycan array binding signal (z-score) [4]: -0.363
glycan array binding signal (z-score) [5]: -0.081
glycan array binding signal (z-score) [6]: -0.244
glycan array binding signal (z-score) [7]: 0.469
glycan array binding signal (z-score) [8]: -0.283
glycan array binding signal (z-score) [9]: 0.673
glycan array binding signal (z-score) [10]: 0.033
glycan array binding signal (z-score) [11]: -0.215
glycan array binding signal (z-score) [12]: -0.226
glycan array binding signal (z-score) [13]: 0.033
glycan array binding signal (z-score) [14]: -0.264
glycan array binding signal (z-score) [15]: 0.002
glycan array binding signal (z-score) [16]: 0.195
glycan array binding signal (z-score) [17]: -0.162
glycan array binding signal (z-score) [18]: -0.154
glycan array binding signal (z-score) [19]: -0.081
glycan array binding signal (z-score) [20]: -0.35
glycan array binding signal (z-score) [21]: -0.652
glycan array binding signal (z-score) [22]: 0.156
glycan array binding signal (z-score) [23]: 0.16
glycan array binding signal (z-score) [24]: 0.039
glycan array binding signal (z-score) [25]: -0.314
glycan array binding signal (z-score) [26]: -0.105
glycan array binding signal (z-score) [27]: 0.649
glycan array binding signal (z-score) [28]: 0.155
glycan array binding signal (z-score) [29]: -0.174
glycan array binding signal (z-score) [30]: -0.175

— the supplement of paper PMC8728848
